According to ChEMBL document CHEMBL4888484, “Replenishing the malaria drug discovery pipeline: Screening and hit evaluation of the MMV Hit Generation Library 1 (HGL1) against asexual blood stage Plasmodium falciparum ,using a nano luciferase reporter read-out” (2022):
Hit rate of the full screen: of about 150,000 compounds, about 540 (0.36%) showed an effect of 50% or more. Some of the results follow.

test system: Plasmodium falciparum; test: Primary screen in NF54 nanoGlo assay, in single point, at 2uM, 72h; a lower Z score goes with more inhibition; assay type: functional, Erythrocyte; conditions: timepoint 72 hour

Row | SMILES | % Inhibition [%] | Z score
1 | CCC(NC(=O)CCC(F)(F)F)[C@H]1C[C@H](O)C1 (stereo partly drawn) | -16 | 1.63
2 | CC(C)(C)OC(=O)N/N=C(\N)c1ccc(Cl)cc1 | -14 | 1.64
3 | O=C(NCc1ccccc1)C(=O)N(Cc1ccccc1)C1CC1 | -17 | 1.46
4 | CCN1CCC(CC(=O)N2CCN(c3ccccc3)[C@H](C(=O)O)C2)CC1 | -15 | 2.95
5 | CN(C)c1ccc(-c2nnnn2[C@H]2CO[C@H]3[C@@H]2OC[C@@H]3NC(=O)Nc2ccccc2)cc1 | 13 | -1.54
6 | COCC(=O)N[C@@H]1CC[C@H]2CCOc3ccccc3C(=O)N3CCN(C4CCC(F)(F)CC4)C[C@H]3C(=O)NC[C@H]1O2 | -4 | 0.54
7 | O=C(Cn1nc(C2CC2)cc1C(=O)N1CCCC1)Nc1ccc(F)cc1Cl | -12 | 1.85
8 | CNC(=O)c1cc(NC(=O)N2CCC[C@]3(CC2)CNC(=O)O3)ccc1OC | -5 | 0.46
9 | Cc1nc(C)c(-c2cccc(C(=O)NCCCN3CCNC(=O)C3)c2)s1 | 0 | -0.04
10 | O=C(NCc1c(Cl)c(Cl)cc(Cl)c1OC(=O)c1cccc2ccccc12)c1ccccc1 | -14 | 2.45
11 | CCOC(=O)N1CCc2c(nc(-c3ccc(C)cc3)n(CC(=O)Nc3ccc(C(C)C)cc3)c2=O)C1 | 36 | -4.11
12 | Cc1nnsc1CN1CCC[C@H]1C(=O)N1CCCCC1 | -10 | 2.09
13 | COCCN(Cc1nc(C(=O)NC(C)C)cs1)C(=O)Nc1ccc(C(C)C)cc1 | 33 | -0.65
14 | c1ccc(-c2ncc(-c3nccn3CCc3c[nH]cn3)s2)cc1 | 4 | -0.58
15 | Cc1nnc(CN(C)C(=O)c2cccc(-c3sc(C)nc3C)c2)o1 | 6 | -0.79
16 | COc1ccc(C(=O)N2CCOCC2)cc1S(=O)(=O)N1CCCCC1 | 1 | -0.22
17 | CC(C)(CNC(=O)Nc1ccccc1)c1ccsc1 | -11 | 2.14
18 | CC1C(O)CC2CCC1N2Cc1ccc(C(=O)O)cc1F (stereo not drawn) | 9 | -1.33
19 | OCCCN(CCO)Cc1ccncc1Cl | -8 | 0.85
20 | CCCn1cc(C(=O)N2CC[C@@H]3OCc4cccc(c4)Oc4cc(OCC)cc(c4)C(=O)N(C)CC(=O)N[C@@H]3C2)c(C)n1 | -3 | 0.61
21 | CCC(CC)CN(CC)C(=O)c1cnn2c1S(=O)(=O)N(C)CC2 | -8 | 1.46

Row | SMILES | % Inhibition [%] | Z score
22 | Cc1ccc2c(=O)n([C@H](c3nccn3C)C3CC3)cnc2c1C | -11 | 1.72
23 | O=C(N[C@@H](c1ccsc1)c1cccs1)c1cccc(Cl)c1 | -7 | 1.28
24 | CCC1(CC)NC(=O)N(Cc2cn3cc(Cl)ccc3n2)C1=O | -4 | 0.66
25 | CC(C)(O)CCON=C(N)Cc1ccccc1 | 11 | -1.78
26 | CC(COC1CCOC1)NC(=O)C1CCC(=O)C(C)C1 (stereo not drawn) | -1 | 0.21
27 | O=C(NCCCNc1cccc(F)c1)c1ccc[nH]1 | 15 | -1.71
28 | COc1ccc2c(N3CCn4c(nnc4C(F)F)C3)ncnc2c1F | -4 | 0.58
29 | COCCN1CCC(CNc2ncccc2C#N)CC1 | -15 | 2.75
30 | CC(CC(=O)C(C#N)C(=O)Nc1ccccc1F)c1ccc(F)cc1 (stereo not drawn) | -7 | 0.97
31 | Cc1nnc(-c2cc(C(C)C)n(-c3ccc(C(=O)NCCC4=CCCCC4)cc3)n2)o1 | -23 | 3.15
32 | Cc1c(Cl)cc(C(=O)N(C)CCc2noc(C3CC3)n2)cc1Cl | -8 | 1.52
33 | CC[C@H]1C(=O)NCCN1C(=O)c1coc(COc2ccc3c(c2)OCO3)n1 | -6 | 0.85
34 | COCCCn1cnnc1[C@H](C)Nc1ncnc2c1Cc1ccccc1OC2 | -14 | 1.35
35 | COCCC1(CNC(=O)c2cccnc2O[C@@H](C)C(F)(F)F)CC1 | -15 | 1.93
36 | CCN(Cc1cccnc1N(C)C)C[C@H]1CCCO1 | -3 | 0.51
37 | CCO[C@@H](C)c1ncc(-c2nc(C3(OC)CCOCC3)no2)s1 | 30 | -3.34
38 | CCS(=O)(=O)N1CCC[C@H](c2ccn(C)n2)C1 | -12 | 1.49
39 | O=C(CN1CCc2nocc2C1)NCC1CCCCC1 | 8 | -1.09
40 | CC1CN(Cc2sccc2NC(=O)OC(C)(C)C)CC(C)O1 (stereo not drawn) | -2 | 0.34
41 | Cc1nc(N2CCC(CNC(=O)[C@H]3CCOC3)CC2)ccc1F | 12 | -1.64
42 | O=C(NC1CCCCC1)c1ccc(CN2C(=O)CCn3nc(-c4ccccc4)cc32)cc1 | 6 | -0.76

Row | SMILES | % Inhibition [%] | Z score
43 | Cc1ccc(CNC(=O)[C@H]2CCC(=O)N(C3CCCCCC3)C2)o1 | -15 | 1.37
44 | O=C(N[C@@H](Cc1ccccc1)C(=O)N1CCCC1)c1cc(F)cc2cccnc12 | -5 | 0.7
45 | O=C(O)c1cc(-n2ncc3cccnc32)cc(S(=O)(=O)N2CCCCCC2)c1 | -15 | 1.99
46 | COc1ncccc1C(=O)N[C@H]1CC(=O)N(CC(C)(C)C)C1 | -5 | 0.67
47 | O=C1CC[C@@]2(CCCN(c3ccncc3F)C2)CN1Cc1ccccn1 | 5 | -0.88
48 | O=C(O)[C@@H]1CCCN1C(=O)c1cc(Cl)sc1Cl | 5 | -0.76
49 | Cc1ccnc(NC(=O)[C@]2(OC(C)C)CCOC2)c1C1CC1 | 18 | -2.1
50 | C=CCNC(=O)N(Cc1ccccn1)c1ccc(Oc2cccc(C)c2C)nc1 | 42 | -5.63
51 | Cc1ccc(N2CCCN(Cc3ccc(C)c(C)c3)C2=O)c(NC(=O)NCc2ccccc2)c1 | -4 | 0.37
52 | CC(C)CNC(=O)N1CCN(Cc2nc3ccc(Cl)cc3o2)CC1 | -18 | 1.59
53 | Cc1ccc(OC[C@H]2CCCN2C)nc1 | -5 | 0.75
54 | O=C(NCc1ccccc1)N1CC[C@H](S(=O)(=O)c2ccccc2)C1 | -10 | 1.65
55 | Cc1ncc(CNc2ccc(Br)cc2CO)o1 | -7 | 0.95
56 | CC(C)n1ccc(C(=O)Nc2cccc(C3CC(=O)NC(=O)C3)c2)n1 | 5 | -0.53
57 | CC(C)Cc1noc(CNC(=O)c2nn(C)cc2Cl)n1 | -7 | 1.19
58 | C[C@@H]1CN(C(=O)c2csc(C(F)(F)F)n2)CCN(C2CC2)C1 | 17 | -2.19
59 | CC1CCC(=O)N1c1ccc(N2CCC(NC[C@H]3CCCO3)CC2)cc1 (stereo partly drawn) | -9 | 1.31
60 | CCOC(=O)c1c(S(=O)(=O)NCC(=O)Nc2ccc(C)cc2C)c(C)n(CC)c1C | -13 | 1.18
61 | O=C(Cc1cccnc1)Nc1ccc(O)cc1 | -1 | 0.22
62 | COc1cccc(C2(C(=O)N(C)c3nnc(C)s3)CCCC2)c1 | 9 | -0.76
63 | CCC(NC(=O)c1ccc2c(C)cc(C)nc2c1)[C@H]1C[C@H](O)C1 (stereo partly drawn) | 2 | -0.35

Row | SMILES | % Inhibition [%] | Z score
64 | O=C(Nc1ccc(-c2nnc3n2CCCCCC3)cc1)c1cc(F)cc(F)c1 | -15 | 2.84
65 | O=C1C[C@H](NC(=O)C2(C3CCC3)CCC2)CN1 | -11 | 1.14
66 | O=C(c1nc2ccccc2s1)N1CCC(Cn2cnc3ccccc32)CC1 | 0 | 0
67 | O=C(Cc1csc(-c2ccccc2)n1)N1CCS(=O)(=O)CC1 | -8 | 1.32
68 | Cn1c(C(=O)N[C@H]2CCS(=O)(=O)C2)cc(Cl)c1Cl | -6 | 1.27
69 | C[C@H](NC(=O)OCc1ccccc1)C(=O)NC1CCCC1 | -8 | 1.24
70 | Cc1n[nH]c(C)c1CNC(=O)NC1CCCCC1C(F)(F)F (stereo not drawn) | 3 | -0.38
71 | Cc1ccc(N2CCC3(CC2)CC(=O)N(Cc2c(C)noc2C)C3)nn1 | -12 | 1.26
72 | O=C(CNS(=O)(=O)c1cccc(C(=O)N2CCC2)c1)NC1CC1 | -19 | 2.71
73 | C[C@@H](c1nnnn1C)N(C)Cc1nccn1CC(F)(F)F | -24 | 2.18
74 | COc1cc(OC)c(S(=O)(=O)NC(C)C)cc1S(=O)(=O)NC(C)C | 38 | -1.01
75 | O=C(CN1C=NS(=O)(=O)c2ccccc21)Nc1cccc(Cl)c1 | -12 | 1.48
76 | Cc1cccc(N(C(=O)CC2CCC2)C2CCOCC2)c1 | 6 | -0.75
77 | CCN([C@@H](C)Cc1ccc(OC)cc1)S(=O)(=O)c1cccnc1 | 0 | 0.01
78 | COCCN1CC(=O)N[C@H]2CN(Cc3ccc4cc[nH]c4n3)C[C@@H]2OCc2cccc(c2)Oc2cc(ccc2OC)CCC1=O | 13 | -1.82
79 | CC[C@H](C)N(Cc1cc(NC(=O)C2CCC2)ccc1N(C)C)C(=O)NC(C)(C)C | 2 | -0.34
80 | O=C1N[C@@H](c2ccccc2)C(=O)Nc2ccccc21 | -3 | 0.43
81 | Cc1cc(S(=O)(=O)NC(=O)c2c[nH]c(C#N)c2)c(C)s1 | 6 | -0.61
82 | C[C@]1(O)CCOC2(CCN(Cc3ccc[nH]3)CC2)C1 | -9 | 1.5
83 | O=C(c1n[nH]c2ccccc12)N1CCC(Oc2ccc(Cl)cc2)CC1 | -20 | 2.5
84 | CC(C)(C)CN[C@H]1CCCc2cn(CC(N)=O)nc21 | 23 | -2.36
